# Test results reported in publication PMC4336329 (PLoS ONE, 2015).
# The campaign covered roughly 310,000 compounds. About 2,200 (0.71%) showed an effect of 50% or more. Effects have a minus sign here. This is one part of the list.
# Biological target: human ether-à-go-go-related gene (hERG) potassium channel (human, UniProt Q12809)
# Assay: primary screen, population patch clamp on CHO cells stably expressing hERG
# human ether-à-go-go-related gene (hERG) potassium channel, sequence (Q12809 whole entry, looked up): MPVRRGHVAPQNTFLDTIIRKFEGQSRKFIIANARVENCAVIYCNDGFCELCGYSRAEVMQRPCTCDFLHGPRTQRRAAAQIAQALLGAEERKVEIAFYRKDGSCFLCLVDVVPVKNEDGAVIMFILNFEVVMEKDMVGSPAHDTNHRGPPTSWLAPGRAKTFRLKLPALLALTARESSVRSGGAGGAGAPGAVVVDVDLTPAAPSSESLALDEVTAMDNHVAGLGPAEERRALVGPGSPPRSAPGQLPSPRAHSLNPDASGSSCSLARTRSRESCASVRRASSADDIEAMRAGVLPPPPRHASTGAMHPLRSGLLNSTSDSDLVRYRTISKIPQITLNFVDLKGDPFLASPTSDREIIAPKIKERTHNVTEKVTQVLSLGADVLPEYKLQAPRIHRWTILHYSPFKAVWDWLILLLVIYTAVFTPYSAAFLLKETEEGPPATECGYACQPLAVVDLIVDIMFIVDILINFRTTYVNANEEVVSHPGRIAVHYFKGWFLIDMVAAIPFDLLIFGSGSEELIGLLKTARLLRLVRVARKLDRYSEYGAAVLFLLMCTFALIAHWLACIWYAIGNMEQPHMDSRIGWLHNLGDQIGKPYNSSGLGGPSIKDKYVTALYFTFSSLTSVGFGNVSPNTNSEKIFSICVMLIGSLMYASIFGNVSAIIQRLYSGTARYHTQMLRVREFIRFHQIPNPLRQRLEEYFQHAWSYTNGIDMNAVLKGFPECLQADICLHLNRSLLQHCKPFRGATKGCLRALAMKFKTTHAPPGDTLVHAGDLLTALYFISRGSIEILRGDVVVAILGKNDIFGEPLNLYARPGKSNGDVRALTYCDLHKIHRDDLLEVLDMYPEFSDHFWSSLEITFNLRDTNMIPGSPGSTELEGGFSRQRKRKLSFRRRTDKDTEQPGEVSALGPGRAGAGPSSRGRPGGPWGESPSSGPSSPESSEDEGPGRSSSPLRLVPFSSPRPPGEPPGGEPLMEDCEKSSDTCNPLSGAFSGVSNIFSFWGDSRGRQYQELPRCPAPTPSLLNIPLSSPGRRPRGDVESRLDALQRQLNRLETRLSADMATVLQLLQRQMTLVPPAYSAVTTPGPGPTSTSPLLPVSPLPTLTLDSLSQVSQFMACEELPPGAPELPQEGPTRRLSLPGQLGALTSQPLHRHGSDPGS
row,Compound,"hERG current change (%, negative = inhibition) at 1uM [%]"
1,COc1ccc(CCNC(=O)C(C)OC(=O)c2nsc(Cl)c2Cl)cc1OC (stereo not shown),8.84
2,CC(CC(=O)NCCc1ccc(F)cc1)c1ccccc1 (stereo not shown),8.58
3,Cc1nc2sc3c(c2c2nnc(SCC(=O)NCc4ccco4)n12)CCCC3,-2.85
4,COc1ccc(N2C(C(C)=O)=NN(c3ccccc3)C2c2cccs2)cc1 (stereo not shown),11.5
5,CCOc1ccc(-c2nc(-c3ccncc3)no2)cc1OCC,13.7
6,Cc1ccc(F)cc1NC(=O)Cc1ncc(C(F)(F)F)cc1Cl,4.55
7,CC(Oc1ccc(S(=O)(=O)N2CCCC2)cc1[N+](=O)[O-])C(=O)NC(C)c1ccccc1 (stereo not shown),5.72
8,CCOc1ncccc1C(=O)OCC(=O)Nc1ccc2c(c1)OCO2,11.3
9,NS(=O)(=O)c1ccc(CCNC(=O)CSc2nc3ccsc3c(=O)n2C2CC2)cc1,12.5
10,COc1ccccc1-c1cc2nc(C)c(CCC(=O)NC(C)CCc3ccco3)c(C)n2n1 (stereo not shown),-9.4
11,CNc1ccccc1C(=O)OCC(=O)c1ccc(F)cc1,7.17
12,Cc1ccc(C)c(NC(=O)[C@@H]2CCCN2S(=O)(=O)c2ccccc2F)c1,31.4
13,O=C(C1CCC1)N1CCN(S(=O)(=O)c2ccc([N+](=O)[O-])cc2)CC1,-15.3
14,Cc1ccc2c(c1)N(C(=O)CCC(=O)NC1CCCCCC1)CCO2,2.91
15,COCCC(=O)N1CCC(Oc2ccc(C(=O)NC3CCCCC3)cc2)CC1,10.8
16,CCOc1cc(CN2CCN(Cc3ccc(C)o3)C(CCO)C2)ccc1OC (stereo not shown),8.92
17,CNC(=O)CSc1nc(-c2ccccc2)c(-c2ccccc2)o1,8.79
18,COc1cc([N+](=O)[O-])cc(/C=N/NC(=O)C(C)Nc2cccc(C)c2)c1O (stereo not shown),17.1
19,O=C(/C=C/c1ccc(F)cc1)NCc1ccco1,1.6
20,O=C(CSc1nccn1-c1ccccc1)NCc1ccc2c(c1)OCO2,1.01
21,CC1CC(C)CN(C(=O)COC(=O)c2cc3ccccc3cc2O)C1 (stereo not shown),8.88
22,CC(=O)N(C1=NCCCS1)c1ccccc1F,-0.361
23,CCO[C@@H]1OC(C(=O)Nc2ccccc2)=C[C@H](c2ccc(Br)cc2)[C@H]1CCCO,14.4
24,CC1CSc2nc3sc4c(c3c(=O)n21)CCCC4 (stereo not shown),7.6
25,O=C(c1c(F)cccc1F)N1CCCC1,2.7
26,CCCCC(=O)NC(c1ccc(N(CC)CC)cc1)c1ccc2cccnc2c1O (stereo not shown),10.4
27,COc1cccc(CNC(=O)CCS(=O)(=O)c2ccc3c(c2)CC(C)N3C(=O)C2CC2)c1 (stereo not shown),4.69
28,COc1cccc(N(CC(=O)NCc2ccco2)C(=O)CCC(=O)Nc2nccs2)c1,12.5

row,Compound,"hERG current change (%, negative = inhibition) at 1uM [%]"
1,Cc1ccc(C(=O)Nc2ccc(Cl)cc2C(=O)c2ccccc2)cc1,4.87
2,O=S(=O)(c1ccccc1)c1cnc(-c2cccnc2)nc1-c1ccc(Cl)c(Cl)c1,6.84
3,O=C(Nc1ccc(S(=O)(=O)Nc2nccs2)cc1)C(F)(F)F,11.6
4,O=C(C1CCC1)N1CCN(c2ccnc3cc(Cl)ccc23)CC1,-59.6
5,CSc1ncccc1C(=O)N1CCCC(N2CCN(c3ccccc3F)CC2)C1 (stereo not shown),3.95
6,Clc1ccc(CSc2nnc(-c3ccc4c(c3)OCO4)o2)cc1,1.19
7,Cc1ccc(-n2nc(C)c3c2NC(=O)CSC3c2ccc3c(c2)OCO3)cc1 (stereo not shown),13
8,COc1ccc(-n2ccn(CC(=O)Nc3ccccc3OC)c(=O)c2=O)cc1,20.2
9,CCOC(=O)C1Cc2ccccc2CN1.Cl (stereo not shown),1.39
10,COc1ccc(CCNC(=O)CCCn2c(SCC(N)=O)nc3cc4c(cc3c2=O)OCO4)cc1OC,4.44
11,C/C(=N\NC(=O)c1ccc(O)cc1)c1cccc(NC(=O)c2ccc(Cl)cc2)c1,13.7
12,CC(OC(=O)c1ccc2c(c1)S(=O)(=O)c1ccccc1C2=O)C(N)=O (stereo not shown),16.9
13,O=C(CN(Cc1ccco1)C(=O)Cn1nnc(-c2ccc(F)cc2)n1)NC1CCCC1,-16.2
14,COc1ccc(NC(=O)COc2ccccc2)cc1NC(=O)c1ccco1,-1.15
15,O=C(Nc1cccc2ccccc12)c1cccc([N+](=O)[O-])c1,9.63
16,Cc1nc(-c2ccccc2)sc1C(=O)CSc1ccccc1,5.39
17,O=C(CCN1C(=O)C2C3C=CC(C4CC34)C2C1=O)Nc1ccc(Cl)cc1O (stereo not shown),10.9
18,CC(C)N1CC(O)=C(c2nc3ccccc3c(=O)[nH]2)C1=N,3.02
19,O=C(C1CCN(c2ncnc3c2nc2n3CCCCC2)CC1)N1CCN(c2ccccc2F)CC1,-18.6
20,Cc1nonc1CN(C)C(=O)c1ccc(OC2CCN(Cc3ccccn3)CC2)cc1,-3.61
21,Fc1ccc(/C=N/N2CCN(Cc3ccccc3)CC2)cc1,-6.05
22,CCSc1nnc(Cc2cc(=O)[nH]c(=O)[nH]2)n1-c1ccc(Cl)cc1,5.25
23,O=C(COc1ccc2ccccc2c1Br)Nc1ccncc1,24.6
24,Cc1ccc(NC(=O)C2CCN(S(=O)(=O)c3c(C)n[nH]c3C)CC2)nc1,0.34
25,O=C(Nc1cccc(F)c1)C1CCN(C(=O)N2CCOc3ccccc32)CC1,-2.95
26,COc1ccc(N2C(=O)CC(N3CCN(c4ccccc4OC)CC3)C2=O)cc1 (stereo not shown),11.7
27,Cc1ccccc1N(CC(=O)N/N=C/c1ccc(F)cc1)C(=O)c1ccccc1,-2.14
